Patent publication US7335723B2, “Melanin-concentrating hormone antagonists” (priority 2001, dated 2008)
Not every detail of the peptide structures is certain; ends, links or a residue may be inferred.

What was measured:
human MCH-1R = human MCH-1R (Homo sapiens, UniProt Q99705); experiment: MCH-1R binding assay, inhibition of [125I]-human MCH binding to membranes; conditions: read-out: MCH-1R Binding IC50; inhibition of [125I]-human MCH (Phe13, Tyr19) binding, cell membranes
rat MCH-1R = rat MCH-1R (Rattus norvegicus, UniProt P97639); experiment: Aequorin bioluminescence functional assay, MCH-1R agonist activity; conditions: read-out: MCH-1R Agonist EC50; 293-AEQ17 cells expressing rat MCH-1R
human MCH-2R = human MCH-2R (Homo sapiens, UniProt Q969V1); experiment: Aequorin bioluminescence functional assay, MCH-2R agonist activity; conditions: read-out: MCH-2R Agonist EC50; 293-AEQ17 cells expressing human MCH-2R
human MCH-2R, sequence (Q969V1 whole entry): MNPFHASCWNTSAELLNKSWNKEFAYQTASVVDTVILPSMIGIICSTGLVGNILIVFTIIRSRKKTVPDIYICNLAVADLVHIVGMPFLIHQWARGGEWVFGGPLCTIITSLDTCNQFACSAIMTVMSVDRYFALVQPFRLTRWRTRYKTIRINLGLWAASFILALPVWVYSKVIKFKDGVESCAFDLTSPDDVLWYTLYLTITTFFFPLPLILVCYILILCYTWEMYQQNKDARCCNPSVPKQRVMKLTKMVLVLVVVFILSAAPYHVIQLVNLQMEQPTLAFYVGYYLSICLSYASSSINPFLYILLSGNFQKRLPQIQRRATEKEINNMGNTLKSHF

rat MCH-1R, sequence (P97639 whole entry): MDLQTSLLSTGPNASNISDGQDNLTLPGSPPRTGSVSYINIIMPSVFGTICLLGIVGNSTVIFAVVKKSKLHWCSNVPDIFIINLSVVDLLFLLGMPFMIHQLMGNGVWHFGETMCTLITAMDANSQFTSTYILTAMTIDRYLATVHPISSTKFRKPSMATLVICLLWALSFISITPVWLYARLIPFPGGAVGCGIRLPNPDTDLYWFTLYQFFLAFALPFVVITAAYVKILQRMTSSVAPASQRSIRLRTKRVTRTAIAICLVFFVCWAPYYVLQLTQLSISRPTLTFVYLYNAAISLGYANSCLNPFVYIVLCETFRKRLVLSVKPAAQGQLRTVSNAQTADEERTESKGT
human MCH-1R, sequence (Q99705 whole entry): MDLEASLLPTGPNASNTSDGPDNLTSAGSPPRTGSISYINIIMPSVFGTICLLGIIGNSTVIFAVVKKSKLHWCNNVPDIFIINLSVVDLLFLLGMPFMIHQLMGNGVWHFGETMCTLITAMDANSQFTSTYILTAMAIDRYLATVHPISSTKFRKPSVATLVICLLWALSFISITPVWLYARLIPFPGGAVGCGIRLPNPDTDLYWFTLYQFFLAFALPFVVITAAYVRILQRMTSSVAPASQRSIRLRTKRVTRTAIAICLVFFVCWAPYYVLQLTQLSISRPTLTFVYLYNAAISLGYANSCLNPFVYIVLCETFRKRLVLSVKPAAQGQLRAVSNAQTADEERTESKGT

SMILES: CSCC[C@@H]1NC(=O)[C@@H](NC(C)=O)CSSC[C@@H](C(N)=O)NC(=O)CCCCNC(=O)CCCCNC(=O)[C@H](Cc2ccc(O)cc2)NC(=O)[C@H](C(C)C)NC(=O)[C@H](CCCNC(=N)N)NC(=O)CNC(=O)[C@H](CC(C)C)NC1=O [SEQ. ID. NO. 21]
- IC50 (human MCH-1R): 0.18 µM
- EC50 (rat MCH-1R): > 10 µM
- EC50 (human MCH-2R): 1.1 µM
